Data on 65 compounds can be found in the supplement of paper PMC9135407.

This test deals with primary human hepatic stellate cells (donor 1). Briefly: scaled lipid accumulation score (0 = DMSO-like, 1 = nortriptyline-like); higher = stronger HSC inactivation (lipid re-accumulation), active = hit call of the paper. The conditions noted are these: 48 h.
Where [1] appears, read: library stock concentration: 1 mM.
[2] abbreviates: library stock concentration: 10 mM.
The mark [3] stands for this setting: library stock concentration: 3.33 mM.
Where [4] appears, read: library stock concentration: 9.1 mM.

The structures appear in SMILES notation. Several values for one entry are separate records, joined by “and”; a condition that tells them apart may be missing. Identical values can stand only once. Counter-ions that a name gives are not always drawn. Out of some 5,800 compounds screened, about 620 (11%) showed activity.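 How the source made its calls: active = score above a cut-off or among the top three wells of a plate; in these data no inactive exceeds 0.85.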 This is a selection; strong and weak results do not stand in their true shares. A value given as a limit tells only on which side of the number the result lay.

In the case of `c1cc(N2CCNCC2)c2cc[nH]c2c1` [4-(1-piperazinyl)-1H-Indole (hydrochloride)], the “scaled lipid accumulation score” value under setting [1] was inactive: ≤ 0.
Consider `O=c1[nH]c2ccccc2n1C1CCN(Cc2ccc(-c3[nH]c4cc5ncnc5cc4nc3-c3ccccc3)cc2)CC1` [Sigma A6730], for which the “scaled lipid accumulation score” value by setting is: (library stock concentration: 80 uM) inactive: ≤ 0; (library stock concentration: 400 uM) inactive: ≤ 0; (library stock concentration: 2 mM) inactive: 0.055; under setting [2], inactive: 0.683.
Turning to `CCCCC/C=C\C=C\[C@H](CCCCCCCC(=O)O)OO`, the “scaled lipid accumulation score” value (library stock concentration: 100 uM) was inactive: ≤ -0.021.
For the compound `CC(C)(Cc1c[nH]c2ccc(Cl)cc12)NCCOc1ccccc1OCC1CC1`, the “scaled lipid accumulation score” value under setting [2] was inactive: 0.301.
Take `CC1=C(O)C(=O)C=C2C1=CC=C1[C@@]2(C)CC[C@@]2(C)[C@@H]3C[C@](C)(C(=O)O)CC[C@]3(C)CC[C@]12C` [Celastrol]: under setting [1], the “scaled lipid accumulation score” value was active: 1.34.
As for `CC(=O)NBr` [N-Bromoacetamide], the “scaled lipid accumulation score” value under setting [2] is inactive: 0.283.
Turning to `O=S(=O)(F)Cc1ccccc1`, the “scaled lipid accumulation score” value is, setting by setting: under setting [3], inactive: ≤ 0; under setting [2], inactive: ≤ 0.
Turning to `C=CCc1ccccc1OCC(O)CNC1(C)CCC(C(C)(C)NC(=O)CBr)CC1` (stereo unspecified) [Bromoacetyl alprenolol menthane], the “scaled lipid accumulation score” value under setting [2] is inactive: ≤ 0.
Regarding `CC(=O)OCC(=O)[C@H]1CC[C@H]2[C@@H]3CC[C@H]4C[C@H](O)CC[C@]4(C)[C@H]3C(=O)C[C@]12C` [Alfadolone acetate], the “scaled lipid accumulation score” value is inactive: 0.097.
In the case of `C=C[C@]12CN(C)[C@@H]3[C@H]4CO[C@H](C[C@H]41)[C@]1(C(=O)Nc4ccccc41)[C@@H]32` [Gelsemine], the “scaled lipid accumulation score” value is inactive: ≤ 0.
Consider `CC(C)NP(=O)(NC(C)C)OP(=O)(NC(C)C)NC(C)C` [Tetraisopropyl pyrophosphoramide], for which the “scaled lipid accumulation score” value under setting [2] is inactive: ≤ 0.
Regarding `C=C(C)[C@@H]1[C@H]2OC(=O)[C@@H]1[C@]1(O)C[C@H]3O[C@]34C(=O)O[C@H]2[C@]14C` [Picrotoxinin], the “scaled lipid accumulation score” value is inactive: ≤ 0.
In the case of `N#CCCN` [3-Aminopropionitrile fumarate], the “scaled lipid accumulation score” value under setting [2] is inactive: ≤ 0.
Take `CC(C)c1c(CN(C)C(C)Cc2ccccc2)n(C)n(-c2ccccc2)c1=O` (stereo unspecified) [Famprofazone]: the “scaled lipid accumulation score” value is inactive: ≤ 0.
Regarding `Oc1ccc(Cl)cc1` [Parachlorophenol], the “scaled lipid accumulation score” value under setting [2] was inactive: ≤ 0 and the “scaled lipid accumulation score” value (library stock concentration: 15.6 mM) is inactive: ≤ -0.001.
Take `O=[N+]([O-])C=Cc1ccc2c(c1)OCO2`: the “scaled lipid accumulation score” value by setting is: under setting [3], active: 1.44; under setting [2], active: 0.901.
As to `CCCCCCCCCCCCCCCC(=O)OC[C@H](COP(=O)([O-])OCC[N+](C)(C)C)OC(=O)CCCC=O`, under setting [1], the “scaled lipid accumulation score” value is inactive: 0.028.
On to `CN1CC[C@@]2(C)c3cc(OC(=O)Nc4ccccc4)ccc3N(C)[C@@H]12` [Phenserine], for which, under setting [2], the “scaled lipid accumulation score” value is inactive: 0.339.
As to `CC(=O)Oc1ccc(Cl)c2cccnc12` [Chloroacetoxyquinoline], under setting [2], the “scaled lipid accumulation score” value is inactive: ≤ -0.027.
For the compound `O=P1(NCCCl)OCCCN1CCCl` (stereo unspecified) [Ifosfamide], the “scaled lipid accumulation score” value was inactive: ≤ 0. Besides, the “scaled lipid accumulation score” value under setting [3] is inactive: 0.005. The “scaled lipid accumulation score” value (library stock concentration: 7.7 mM) was inactive: ≤ 0. In addition, under setting [2], the “scaled lipid accumulation score” value was inactive: ≤ 0.
For the compound `COc1ccc(C(=O)c2c(C)n(CCN3CCOCC3)c3cc(I)ccc23)cc1`, the “scaled lipid accumulation score” value under setting [2] was inactive: 0.048.
Turning to `CCCCC/C=C\C/C=C\C/C=C\C/C=C\CCCC(=O)NCCO` [Anandamide (22:4,n-6)], the “scaled lipid accumulation score” value under setting [1] is inactive: ≤ -0.021.
In the case of `CCCCC/C=C\C/C=C\C/C=C\C/C=C\CCCC(=O)NCCO` [Anandamide (18:2,n-6)], under setting [1], the “scaled lipid accumulation score” value was inactive: ≤ -0.021.
On to `CCCCC/C=C\C/C=C\C/C=C\C/C=C\CCCC(=O)NCCO` [Anandamide (20:4, n-6)], for which, under setting [1], the “scaled lipid accumulation score” value was inactive: ≤ -0.013.
Regarding `CCCCC/C=C\C/C=C\C/C=C\C/C=C\CCCC(=O)NCCO` [Anandamide (20:3,n-6)], the “scaled lipid accumulation score” value under setting [1] is inactive: ≤ -0.021.
For the compound `CCCCC/C=C\C/C=C\C/C=C\C/C=C\CCCC(=O)NCCO` [Arachidonoyl Ethanolamide], the “scaled lipid accumulation score” value under setting [1] is inactive: 0.021.
Consider `C[C@H](N)Cn1ccc2cc(F)c(Cl)cc21.O=C(O)/C=C/C(=O)O` [Ro 60-0175 fumarate], for which, under setting [2], the “scaled lipid accumulation score” value was active: 0.953.
As to `C=CCN1C[C@H](C(=O)N(CCCN(C)C)C(=O)NCC)C[C@@H]2c3cccc4[nH]cc(c34)C[C@H]21` [Cabergoline], the “scaled lipid accumulation score” value (library stock concentration: 4.4 mM) was inactive: 0.368.
For the compound `Oc1ccc2c3c1O[C@H]1c4oc5ccccc5c4C[C@@]4(O)[C@@H](C2)N(CC2CC2)CC[C@]314` [Naltriben mesylate], the “scaled lipid accumulation score” value (library stock concentration: 4.8 mM) is inactive: 0.403.
Consider `NCc1cc(O)no1` [Muscimol hydrobromide], for which the “scaled lipid accumulation score” value under setting [2] is inactive: 0.274.
With `NCc1cc(O)no1` [Muscimol], the “scaled lipid accumulation score” value under setting [2] is inactive: 0.065.
With `NC(=O)CN1CCCC1=O` [Piracetam], the “scaled lipid accumulation score” value was inactive: ≤ 0. Also, the “scaled lipid accumulation score” value under setting [3] was inactive: ≤ 0. Also, the “scaled lipid accumulation score” value under setting [2] is inactive: ≤ 0 and inactive: 0.142.
`COc1cc2c(cc1OC)C(C)NCC2` (stereo unspecified): the “scaled lipid accumulation score” value was inactive: 0.537.
Regarding `O=c1[nH]c(=O)n(Cl)c(=O)n1Cl`, the “scaled lipid accumulation score” value under setting [2] is inactive: ≤ 0.
In the case of `O=C(Oc1ccc([N+](=O)[O-])cc1)N1CCC(C(O)(c2ccc3c(c2)OCO3)c2ccc3c(c2)OCO3)CC1`, the “scaled lipid accumulation score” value is inactive: ≤ 0 under setting [3] and inactive: ≤ -0.001 under setting [2].
In the case of `Cc1ccc(S(=O)(=O)N[C@@H](CCCCN)C(=O)CCl)cc1` [Tosyllysine Chloromethyl Ketone (hydrochloride)], under setting [1], the “scaled lipid accumulation score” value was inactive: ≤ 0.
Regarding `Cc1ccc(S(=O)(=O)N[C@@H](CCCCN)C(=O)CCl)cc1` [Na-p-Tosyl-L-lysine chloromethyl ketone hydrochloride], under setting [2], the “scaled lipid accumulation score” value was inactive: ≤ 0.
For the compound `CCCN1CCC[C@@H](c2cccc(O)c2)C1` [S(-)-3PPP hydrochloride], the “scaled lipid accumulation score” value under setting [2] is inactive: ≤ 0.
For the compound `CN1C(=O)COc2c(C(=O)NC3CN4CCC3CC4)cc(Cl)cc21` (stereo unspecified) [Azasetron], the “scaled lipid accumulation score” value under setting [2] was inactive: ≤ 0.
As to `O=C1CN=C(c2ccccc2)c2cc([N+](=O)[O-])ccc2N1` [Nitrazepam], the “scaled lipid accumulation score” value under setting [2] is inactive: ≤ 0.
On to `CC(=O)OCC1=C(C(=O)O)N2C(=O)[C@@H](NC(=O)CCC[C@@H](N)C(=O)O)[C@H]2SC1` [Cephalosporin c sodium], for which the “scaled lipid accumulation score” value under setting [2] was inactive: ≤ 0.
Consider `CCCCC/C=C\C/C=C\C/C=C\C/C=C\CCCC(=O)N(C)C` [Arachidonoyl-N,N-dimethyl amide], for which the “scaled lipid accumulation score” value under setting [1] was inactive: 0.01.
Consider `COc1ccc2cc(C(C#N)OC(=O)OCC3OC3c3ccccc3)ccc2c1` (stereo unspecified) [Epoxy Fluor 7], for which the “scaled lipid accumulation score” value under setting [1] was inactive: 0.009.
For `COc1cc2c(cc1OC)C1CC(=O)C(CC(C)C)CN1CC2` (stereo unspecified) [Tetrabenazine], the “scaled lipid accumulation score” value under setting [2] was inactive: ≤ 0 and inactive: ≤ -0.001.
As for `CCCCC/C=C\C/C=C\C/C=C\C/C=C\CCCC(=O)Nc1ccc(O)cc1`, the “scaled lipid accumulation score” value was inactive: ≤ 0 under setting [1]; inactive: ≤ 0 and inactive: 0.165 under setting [2].
Consider `CCNC(=O)[C@H]1O[C@@H](n2cnc3c(N)ncnc32)[C@H](O)[C@@H]1O` [5'-N-Ethylcarboxamidoadenosine], for which, under setting [2], the “scaled lipid accumulation score” value is inactive: 0.157.
On to `CCNC(=O)[C@H]1O[C@@H](n2cnc3c(N)ncnc32)[C@H](O)[C@@H]1O`, for which the “scaled lipid accumulation score” value under setting [2] is inactive: ≤ -0.006.
Take `O=C1CCC[C@@H]2[C@H]3CCCN4CCC[C@@H](CN12)[C@@H]34` [(+)-Matrine]: the “scaled lipid accumulation score” value was inactive: ≤ 0 under setting [3] and inactive: ≤ 0 under setting [2].
With `Cc1cccc(C)c1NC1=NCCCS1` [Xylazine], the “scaled lipid accumulation score” value is inactive: 0.095. Further, the “scaled lipid accumulation score” value under setting [4] is inactive: ≤ 0. The “scaled lipid accumulation score” value under setting [2] was inactive: 0.054.
For the compound `Cc1cccc(C)c1NC1=NCCCS1` [Xylazine hydrochloride], the “scaled lipid accumulation score” value under setting [2] was inactive: 0.141.
For `Cc1cccc(C)c1NC1=NCCCS1` [Xylazine HCl], the “scaled lipid accumulation score” value reads like this: under setting [3], inactive: ≤ 0; under setting [4], inactive: ≤ -0.006; under setting [2], inactive: ≤ 0.
`CC(=O)NC1CCSC1=O` (racemic) [N-Acetyl-DL-homocysteine Thiolactone]: the “scaled lipid accumulation score” value was inactive: ≤ 0.
Consider `CC(Cc1ccccc1)NCCC(c1ccccc1)c1ccccc1` (stereo unspecified) [Prenylamine lactate], for which the “scaled lipid accumulation score” value is inactive: ≤ 0.
Take `COc1ccc(C[C@@H]2NC[C@@H](O)[C@@H]2OC(C)=O)cc1` [Anisomycin]: the “scaled lipid accumulation score” value (library stock concentration: 18.8 mM) was active: 0.899.
Turning to `NCCc1c[nH]c2ccccc12` [Tryptamine hydrochloride], the “scaled lipid accumulation score” value under setting [2] is inactive: 0.31.
On the same count and under the same terms, for `NCCc1c[nH]c2ccccc12` [Tryptamine] the value was inactive: 0.263.
Regarding `O=C(O[C@H]1C[N+]2(CCCOc3ccccc3)CCC1CC2)C(O)(c1cccs1)c1cccs1` [Aclidinium Bromide], the “scaled lipid accumulation score” value runs as follows: under setting [3], inactive: ≤ 0; under setting [2], inactive: ≤ -0.001.
As to `CCCCC/C=C\C/C=C\C/C=C\C/C=C\CCCC(=O)NCCc1c[nH]c2ccc(O)cc12` [Arachidonoyl Serotonin], the “scaled lipid accumulation score” value under setting [1] was inactive: 0.006.
Take `Clc1ccc(C(OCCN2CCCCC2)c2ccccc2)cc1` (stereo unspecified) [Cloperastine hydrochloride]: the “scaled lipid accumulation score” value was inactive: 0.488. Moreover, the “scaled lipid accumulation score” value under setting [2] was inactive: 0.544.
For `C[C@@H](CO)NC(=O)[C@@H]1C=C2c3cccc4[nH]cc(c34)C[C@H]2N(C)C1` [Ergonovine maleate], the “scaled lipid accumulation score” value runs as follows: (library stock concentration: 4.5 mM) inactive: ≤ -0.001; under setting [2], inactive: ≤ 0.
Consider `CN[C@@H]1C[C@H]2O[C@@](C)([C@@H]1OC)n1c3ccccc3c3c4c(c5c6ccccc6n2c5c31)C(=O)NC4` [staurosporine], for which the “scaled lipid accumulation score” value (library stock concentration: 10.7 mM) was inactive: 0.643.
As for `CN1CC(CNC(=O)OCc2ccccc2)C[C@H]2c3cccc4c3c(cn4C)CC21` (stereo partly specified) [Metergoline], the “scaled lipid accumulation score” value under setting [2] is active: 1.05.
For `CC[C@@H]1/C=C/C=C/C[C@H](C)[C@H](O)[C@](C)(O)C(=O)[C@H](C)[C@@H](O)[C@H](C)C(=O)[C@H](C)[C@@H](O)[C@H](C)/C=C/C(=O)O[C@H]2[C@@H](C)[C@@H](CC1)O[C@@]1(CC[C@@H](C)[C@@H](C[C@H](C)O)O1)[C@@H]2C` [Oligomycin A], the “scaled lipid accumulation score” value was inactive: ≤ 0 under setting [3], inactive: 0.799 (library stock concentration: 6.3 mM) and inactive: ≤ 0 under setting [2].
For the compound `CC(C)(C)[C@]1(O)CC2OC(=O)CC23C(=O)OC2OC(=O)[C@H](O)C231` (stereo partly specified) [Bilobalide], the “scaled lipid accumulation score” value is inactive: ≤ 0 under setting [3] and inactive: ≤ 0 under setting [2].
Turning to `Cc1cc(SCc2sc(-c3ccc(C(F)(F)F)c(F)c3)nc2C)ccc1OCC(=O)O`, the “scaled lipid accumulation score” value is, setting by setting: under setting [1], inactive: 0.038; under setting [3], inactive: ≤ -0.009; under setting [2], inactive: ≤ 0 and inactive: 0.045.
